Assay results from the antibiotic and cytotoxicity screens of Wong et al. (2023).
The list shows a part of the results.

These molecules were tested on S. aureus RN4220 (assay: growth inhibition call (relative growth <= 0.2)). Conditions: 50 µM.

Growth inhibition call, inactive:
O=C(C[C@@H]1CC[C@@H]2NC[C@H](O)COC[C@H]2O1)NCCN1CCCC1, CCCNC(=O)[C@@]1(C)c2ccccc2C(=O)N(Cc2ccc(OC(F)(F)F)cc2)[C@H]1c1ccc(CO)cc1, COc1ccc(CNCC(=O)O)cc1, C[C@@H]1O[C@H](O)[C@@H](F)[C@H](O)[C@@H]1O, C[C@@H]1CN([C@H](C)CO)C(=O)c2cc(NC(=O)Nc3cccc4ccccc34)ccc2O[C@@H](C)CCCCO[C@H]1CN(C)S(=O)(=O)c1ccc(Cl)cc1, COCCOC(=O)N1C(=O)[C@@]2(c3cc(C#CC4=CCCCC4)ccc31)[C@H](c1ccc(OCCO)cc1)N1[C@H](c3ccccc3)[C@H](c3ccccc3)OC(=O)[C@H]1[C@@H]2C(=O)N1CCc2cc(OC)c(OC)cc2C1, COC(=O)C1=C(C)NC(C)=C(C(=O)OCCCN2CCC(c3ccccc3)(c3ccccc3)CC2)[C@@H]1c1cccc([N+](=O)[O-])c1, C[C@H]1CN([C@@H](C)CO)C(=O)CCCn2cc(nn2)CO[C@@H]1CN(C)S(=O)(=O)c1cccc(C#N)c1, Cc1noc(C)c1NC(=O)Nc1cccc2c1O[C@@H](CN(C)C(=O)Nc1cccc3ccccc13)[C@@H](C)CN([C@H](C)CO)C2=O
